Some of the results follow.
target: T1, OsWOX13 (Oryza sativa, UniProt Q5QMM3 1-267); experiment: protein-binding microarray (RPBM); PBS, 2% BSA, 51.3 ng/ul salmon testes DNA, 50 uM zinc acetate, 200 nM TF, 25 C, 1 h; high values mean tight binding; conditions: protein: recombinant; tags: N-terminal polyhistidine and DsRed monomer fusion (pET32a); label: CyDye5-dUTP incorporated in the synthesized complementary strand; 3' TTTTT single-stranded linker to array surface; dsDNA, one strand shown
T1 sequence: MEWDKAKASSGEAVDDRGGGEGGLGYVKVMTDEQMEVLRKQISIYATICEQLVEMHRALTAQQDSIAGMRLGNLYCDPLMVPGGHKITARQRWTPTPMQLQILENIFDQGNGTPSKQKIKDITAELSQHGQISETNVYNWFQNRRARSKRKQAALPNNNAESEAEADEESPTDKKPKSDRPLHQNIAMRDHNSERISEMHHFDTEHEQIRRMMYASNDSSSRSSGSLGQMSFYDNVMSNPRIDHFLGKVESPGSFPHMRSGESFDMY
Summary of the method: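 In PBS with 2% BSA, salmon testes DNA and 50 µM zinc acetate, 200 nM protein was incubated on a custom Agilent array at 25 °C for 1 h and then washed off. The array had been made double-stranded by primer extension with Cy5-dUTP and blocked with 2% BSA. The proteins were transcription factors fused N-terminally to polyhistidine and DsRed, expressed in E. coli BL21-CodonPlus and purified on Ni–NTA. The binding signal is per-feature fluorescence intensity (arbitrary units) from an Axon 4000B scanner.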

Sequence	binding signal
GTGTTAATTTAATCATAAAACTTAGATGTTTATAACTCAACGGAGTCACCTAGTGCAG	18700 fluorescence intensity (a.u.)
AATGACGATTAATTGTATATGTGCAACCGTGCAAGCTTTGCGGAGTCACCTAGTGCAG	22800 fluorescence intensity (a.u.)
CTTTATTTCACAATCCATGATTACATACCTAACTAATTATCGGAGTCACCTAGTGCAG	4630 fluorescence intensity (a.u.)
GAGGAGGAGGAGGAGGAGGAGGAGGATGCGGGTGGTGGTGCGGAGTCACCTAGTGCAG	3500 fluorescence intensity (a.u.)
TTACGCCATGATTTGATAATATGGTGATACAATAAACATTCGGAGTCACCTAGTGCAG	4610 fluorescence intensity (a.u.)
CCCAAATCAAATCAGAGACAATTTATTATGGAGAAAATTACGGAGTCACCTAGTGCAG	7660 fluorescence intensity (a.u.)
CATAAATTGGAAATAGTAGTTCCATAAATGTAACAGTTATCGGAGTCACCTAGTGCAG	20300 fluorescence intensity (a.u.)
TGAATGATTGCTCTTGTGCTAAGATACTTATTTGCAATCCCGGAGTCACCTAGTGCAG	13300 fluorescence intensity (a.u.)
AATCAAACTCTGATTAGTATACATATATTCATAGTTAAATCGGAGTCACCTAGTGCAG	5890 fluorescence intensity (a.u.)
TATCATTGGCGTTTAATTATCTCGGCTGAATTATTTGATACGGAGTCACCTAGTGCAG	7180 fluorescence intensity (a.u.)
CTCCATTTAGCTATAAATAATTTAATATGAAGAAGGAAAACGGAGTCACCTAGTGCAG	3560 fluorescence intensity (a.u.)
GCTAATTTATCCTGCTCACACGTCGTATTGCCAACCCGACCGGAGTCACCTAGTGCAG	32700 fluorescence intensity (a.u.)
TTTTAATTTCAACTAAACTTCTAATTTTAACGTGAACTAACGGAGTCACCTAGTGCAG	9020 fluorescence intensity (a.u.)
ATGGACTAATTTGGCTAAAATAATTCGTCAAACTGTGCAACGGAGTCACCTAGTGCAG	9400 fluorescence intensity (a.u.)
CGGAAGATTGGAATGGAAATCGGAGAGAGCAGGGGCGGTGCGGAGTCACCTAGTGCAG	12800 fluorescence intensity (a.u.)
TATGTAATTATTATTTATTTTATTGTGATTTGATTCATCACGGAGTCACCTAGTGCAG	31400 fluorescence intensity (a.u.)
CTTTGATTTATTTCAAATCTGGTTTACCTCGTAGTTTGTCCGGAGTCACCTAGTGCAG	33500 fluorescence intensity (a.u.)
ATAAGTCGGTCTGACTGATTGCGTCATGTAACAAACATTCCGGAGTCACCTAGTGCAG	5840 fluorescence intensity (a.u.)
TAATAATAAAATAAATTACAAATTCCGTATGTAAACTGCGCGGAGTCACCTAGTGCAG	15200 fluorescence intensity (a.u.)
AACTTGACTAAATTGCACTTTAGTCCACCTTTTATTACCCCGGAGTCACCTAGTGCAG	17900 fluorescence intensity (a.u.)
TCCTAATTAAGCACAACAATTCCTCTCTAGCTAAGCCAATCGGAGTCACCTAGTGCAG	11400 fluorescence intensity (a.u.)

Sequence	binding signal
TTTATTGGTATTGATAGTTAGGAGGTGTAATATACCCAGTCGGAGTCACCTAGTGCAG	5530 fluorescence intensity (a.u.)
TAGTTATTGACAGGTCAATAGTACTGTTGGATCTCAATAACGGAGTCACCTAGTGCAG	21800 fluorescence intensity (a.u.)
TCAGTCTATCAATATAATAGTTAGCTCTTTATAGTTACTACGGAGTCACCTAGTGCAG	3320 fluorescence intensity (a.u.)
ATTCAATCTCATTTGCCTGATTACAGTTAGATACTGACATCGGAGTCACCTAGTGCAG	26400 fluorescence intensity (a.u.)
CTCCGGCTTGATTACTTCCTGATCTCCTCCTCCCCGACGCCGGAGTCACCTAGTGCAG	13300 fluorescence intensity (a.u.)
AGAAATTGCAGCATTTACTTGATTGGATCGCGACTGTGGACGGAGTCACCTAGTGCAG	40000 fluorescence intensity (a.u.)
CTTTAAATTTAACACTGAAAATTTAAATTTGGGCTAATAACGGAGTCACCTAGTGCAG	17100 fluorescence intensity (a.u.)
TATGAATTGCCAATAACCCATGGCCTCGTCGGCTCCCGTGCGGAGTCACCTAGTGCAG	3150 fluorescence intensity (a.u.)
GTTTAAAAGTGATTGGACCTAAAGTTTAGGAGGGGTTAATCGGAGTCACCTAGTGCAG	14400 fluorescence intensity (a.u.)
AAGATAATGAAATTATTGACAACAATGAATTTAGTGGTGCCGGAGTCACCTAGTGCAG	34700 fluorescence intensity (a.u.)
ACACACACACCCATTAATTTACATTTACAGAGTAAACATTCGGAGTCACCTAGTGCAG	5060 fluorescence intensity (a.u.)
TGATAAATTAATTACCAACAATAATTAATTCATCTCAAAACGGAGTCACCTAGTGCAG	42000 fluorescence intensity (a.u.)
CCGTTTGATTTAATAATTATATGGGAGTTCAAAGTAATTCCGGAGTCACCTAGTGCAG	32600 fluorescence intensity (a.u.)
CGGTCCATTAGCGCGTGATTAATTAAGTATTAGCTATTTTCGGAGTCACCTAGTGCAG	23400 fluorescence intensity (a.u.)
TTGAAAATCAAAATTTTAGAATTTAAATTTTAACAACTACCGGAGTCACCTAGTGCAG	3280 fluorescence intensity (a.u.)
AGTCCAAATTGTAACAATGGTAATCAAAGGTGGCTCAAGGCGGAGTCACCTAGTGCAG	6990 fluorescence intensity (a.u.)
AACGTGACAAATATTAATTTGTCATAAGGGGAACAAAGCACGGAGTCACCTAGTGCAG	12500 fluorescence intensity (a.u.)
CATGATGAATGATACTAAAATTTGACAATATTCCGGCGTCCGGAGTCACCTAGTGCAG	14500 fluorescence intensity (a.u.)
AATAGACATATAAATGTAACTGTCTAAAGAATAGGGACCTCGGAGTCACCTAGTGCAG	9070 fluorescence intensity (a.u.)
TTCTAAATTAACCTTGCACGTGATTAATGCAAATCGGATGCGGAGTCACCTAGTGCAG	18800 fluorescence intensity (a.u.)
CCCACCCCGCGTCGCAATTAATAATTGGTCGCGACTCGCGCGGAGTCACCTAGTGCAG	5700 fluorescence intensity (a.u.)
